We go through 85 molecules from PubChem BioAssay AID1346428 (National Center for Advancing Translational Sciences (NCATS), 2018).

Several values for one entry are separate records, joined by “and”; a condition that tells them apart may be missing. Equal values may be shown once. In all, about 48,000 compounds went through this assay and about 1,200 (2.5%) were called active. Another 2% or so got no clear call; they are omitted.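 The calls were made as follows: active = activation of at least 60% and not above a set upper limit (about 1 call in 100 departs from these limits); inconclusive = activation of 40% to 60%, or above that upper limit; inactive = activation under 40%.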 Some of the results follow.

For the assay, the target named is Probable G-protein coupled receptor 32 (Homo sapiens) (UniProt O75388). Description: qHTS for Agonists of Human Resolvin D1 Receptor DRV1. The conditions noted are these: CHO-K1 GPR32 beta-arrestin PathHunter luminescence, 90 min; at 76.9 µM; hits give high values; zero percent set by DMSO-only wells. In a few lines: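 Beta-arrestin recruitment read-out: luminescence from complemented beta-Gal in CHO-K1 GPR32 PathHunter cells, measured 1 h after detection reagent at ambient temperature following 90 min compound exposure at 37 °C; DMSO served as basal (EC0) control.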
Chain of UniProt O75388 (O75388 whole entry, looked up): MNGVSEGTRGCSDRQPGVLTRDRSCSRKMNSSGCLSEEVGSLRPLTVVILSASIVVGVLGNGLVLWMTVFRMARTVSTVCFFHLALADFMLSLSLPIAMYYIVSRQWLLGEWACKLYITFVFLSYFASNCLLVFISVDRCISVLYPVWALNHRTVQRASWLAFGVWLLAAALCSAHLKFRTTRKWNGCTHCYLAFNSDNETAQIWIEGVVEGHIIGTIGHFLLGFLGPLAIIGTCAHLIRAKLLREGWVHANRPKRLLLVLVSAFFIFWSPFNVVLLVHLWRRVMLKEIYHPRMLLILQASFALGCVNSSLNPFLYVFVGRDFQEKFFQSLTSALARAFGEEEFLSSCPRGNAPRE
Turning to `COc1ccccc1-c1cc(C(=O)Nc2sc3c(c2C#N)CCCC3)no1`, the activation was inactive: -0.65%. The same measure for `COc1ccc(NC(=O)c2c(NCc3ccc(C)o3)sc3c2CCC(C)C3)c(OC)c1` (stereo not given): inactive: -8.32%; for `COc1ccc(OC)c(NC(=O)CSc2ccnc(=O)[nH]2)c1`: inactive: -6.77%; for `COc1ccccc1N1CCN(S(=O)(=O)c2c(C)sc3ncn(CC(=O)Nc4cccc(Cl)c4)c(=O)c23)CC1`: inactive: 0.399%.

For the molecule `Cc1ccc2c(c1)NC(=O)C(CC(=O)Nc1cc(Cl)ccc1C)O2` (stereo not given), the activation is inactive: -4.9%. To `COc1ccc(C2CC(c3c(O)n(C4CCCCC4)c(=O)[nH]c3=O)=Nc3ccccc3S2)cc1` (stereo not given) belongs inactive: 0.48%; to `COC(=O)c1c(-c2ccc(Cl)cc2)noc1N1CCN(c2ccc(OC)cc2)CC1`, inactive: -3.67%. For the molecule `CCc1nn2c(=O)cc(COC(=O)CNC(=O)c3ccccc3)nc2s1`, the activation was inactive: -23.2%. The same measure for `COc1cc(OC)c(Nc2cc(C)nc3ncnn23)cc1Cl`: inactive: -2.14%.

As for `O=C(Nc1ccc(Br)cc1)C1CCN(c2cnccn2)CC1`, the activation is inactive: 2.24%. `CCOc1ccc(C(=O)Nc2cccc(NC(=O)c3ccco3)c2)cc1Cl`: the activation was inactive: -11.5%. The same measure for `CCN(CC)S(=O)(=O)c1nnc(NC(=O)COc2ccccc2Cl)s1`: inactive: 13.6%. As to `COc1ccccc1CNC(=O)c1ccc(N2CCCC2)c(NC(=O)NCc2ccccc2)c1`, the activation is inactive: -16.9%. The same measure for `CCC(C(=O)N1CCN(c2ccccc2)CC1)n1nc(C)n2c(cc3sccc32)c1=O` (stereo not given): inactive: -2.4%; for `O=C(COc1ccccc1F)OCc1cc(=O)n2nc(-c3cccs3)sc2n1`: inactive: 9.2%; for `Cn1c(=O)c2c(SCC(=O)N3CCc4ccccc43)nc(-c3ccccc3Cl)nc2n(C)c1=O`: inactive: -28.4%.

As for `Cc1nc(-c2ccccc2)sc1-c1ccc(SCC(=O)NCc2ccc(F)cc2)nn1`, the activation is inactive: -2.77%. The same measure for `CCC(CC)C(=O)NC1CC(=O)N(c2ccc3c(c2)OCCO3)C1` (stereo not given): inactive: -0.134%. To `CC1=Nc2cc(C(=O)NCCc3ccc(Cl)cc3)ccc2Sc2ccc(C)cc21` belongs inactive: -23.7%; to `Cc1ccc(-c2nc3cccnc3s2)cc1NC(=O)C(C)C`, inactive: -3.3%. To `Cc1ccc(-c2ccc(=O)n(Cc3cc(C)ccc3C)n2)cc1` belongs inactive: 11.5%; to `COC(=O)C(Cc1c[nH]c2ccccc12)NC(=O)COc1ccc(Cl)cc1Cl` (stereo not given), inactive: -2.55%; to `CCOc1ccc(-n2c(SCC(=O)N3CCCC3)nc3c([nH]c4ccccc43)c2=O)cc1`, active: 77.3%. Regarding `CCOc1ccc(-n2c(CCC(=O)O)ccc2-c2ccc(Br)cc2)cc1`, the activation was inactive: -1.6%. To `CCN(c1cc(C)cc(C)c1)S(=O)(=O)c1nnc(NC(=O)c2cccs2)s1` belongs inactive: 33.7%; to `CCc1ccc(CNC(=O)CCSCc2ccccc2F)cc1`, inactive: -17.2%.

With `Cc1cccc(NS(=O)(=O)c2ccc3[nH]c(=O)ccc3c2)c1C`, the activation was inactive: -18.6%. Regarding `COc1cc(NC(=O)Cn2c(=O)oc3cc(S(=O)(=O)N4CCCCCC4)ccc32)cc(OC)c1`, the activation is inactive: 0.553%.

Consider `COc1ccc(C(=O)c2cn(CC(=O)Nc3ccc4c(c3)OCCO4)c3ccc(OC)cc3c2=O)cc1`, for which the activation is inactive: 4.83%.

As for `Cc1oc2ccc(O)c(CN(C)Cc3ccccc3)c2c1C(=O)Nc1cccc(C(F)(F)F)c1`, the activation is inactive: 17.6%.

As to `COc1ccccc1OCCn1c(-c2ccc(Cl)cc2)nc2ccccc2c1=O`, the activation is inactive: 10%. Take `O=C(Cn1c(=O)nc(-c2ccccc2)c2ccccc21)Nc1ccc(Cl)c(C(F)(F)F)c1`: the activation was inactive: -2.91%. To `CCN(C(=O)Cc1nc(-c2ccc(OC)cc2)no1)c1cccc(Cl)c1` belongs inactive: -22.3%; to `O=C(CSc1nc(-c2ccccc2)no1)N1CCN(c2ccccc2F)CC1`, inactive: 1.39%. To `COc1cccc(C2=CC(c3ccc(OC)c(OC)c3OC)n3ncnc3N2)c1` (stereo not given) belongs inactive: 4.26%; to `Cc1cc(C)cc(-n2nnc(-c3nc(-c4ccc5c(c4)OCO5)no3)c2C)c1`, inactive: -4.44%. To `Nc1ccc2c(c1)CN1C(=O)c3ccccc3C1=N2` belongs inactive: 13.6%; to `Cc1ccc(C(=O)NCCn2c(C)cc3ccccc32)cc1C`, inactive: 6.48%. Take `CCC(=O)N1c2ccc(S(=O)(=O)N3CCN(c4ccccc4)CC3)cc2CC1C` (stereo not given): the activation is inactive: 17.6%. The same measure for `CC(=O)c1ccc(NC(=O)c2cn3c4c(ccc(Cl)c4c2=O)OC(C)C3)cc1` (stereo not given): inactive: 14.1%; for `COc1cc2c(=O)n(CCC(=O)NCC3CCCO3)c(=O)n(CC(=O)Nc3ccc(C)cc3)c2cc1OC` (stereo not given): inactive: 0.883%. The same measure for `Cc1ccc(S(=O)(=O)C(CNC(=O)C(=O)NCc2ccc(Cl)cc2)c2cccs2)cc1` (stereo not given): inactive: -10.1%. To `Cc1c(NC(=O)c2ccc(OC(C)C)cc2)cccc1-c1nc2ncccc2o1` belongs active: 88.9%; to `Cc1ccc(S(=O)(=O)c2cn(CC(=O)Nc3ccc(C)c(Cl)c3)c3ccc(C)cc3c2=O)cc1`, inactive: -12%; to `CC(Oc1ccc(F)cc1)C(=O)NCC1(N(C)C)CCCCC1` (stereo not given), inactive: -3.08%. With `Cc1ccc(CNC(=O)C2CCCN(S(=O)(=O)c3ccc4c(c3)oc(=O)n4C)C2)cc1` (stereo not given), the activation is inactive: -4.57%. In the case of `O=C1CN(C(=O)c2ccc(S(=O)(=O)N3CCCCC3)cc2)C(c2ccc(F)cc2)c2cc(F)ccc2N1` (stereo not given), the activation was inactive: -17.9%. The same measure for `COc1cccc(C(=O)NCCSc2c(-c3ccc(F)cc3)[nH]c3ccccc23)c1OC`: inactive: -12%; for `CC(C)Oc1ccc(CNC(=O)CCCn2c(=O)c3cccn3c3ccccc32)cc1`: inactive: -21.2%; for `CCCS(=O)(=O)Nc1cc(-c2cn3cccc(C)c3n2)ccc1C`: inactive: -1.65%.

In the case of `COc1ccc(-c2cn3nc(N4CCC(C(=O)NCc5ccccc5F)CC4)sc3n2)cc1`, the activation was inactive: -2.18%.

With `Cc1ccc(NCc2cccn2-c2nnc(N3CCC(C(=O)NC(C)C)CC3)s2)cc1`, the activation is inactive: -22.3%.

For `Cc1ccc(S(=O)(=O)N2CCCc3cc(NS(=O)(=O)c4ccc(F)c(C)c4)ccc32)cc1`, the activation was inactive: -11.4%. The same measure for `COc1ccc(-c2cc(C(F)(F)F)c(C#N)c(SCC(=O)Nc3ccc(F)cc3)n2)cc1`: inactive: -3.11%; for `CCOC(=O)c1c(NC(=O)CS(=O)(=O)c2ccc(C)cc2)sc2c1CCCCC2`: inactive: -31.2%; for `COc1ccc(NC(=O)Cn2c(=O)oc3cc(S(=O)(=O)NC4CCCC4)ccc32)cc1OC`: inactive: -3.41%.

With `CCCNC(=O)c1ccc2c(c1)ncn2-c1ccc(C)cc1C`, the activation is inactive: -3.93%. The same measure for `COc1ccc(CNc2ncnc3onc(C)c23)cc1`: inactive: 26.7%; for `COP(=O)(OC)OC(c1ccc(Cl)cc1)P(=O)(OC)OC` (stereo not given): inactive: -12.5%; for `CN(C)CCNC(=O)c1ccc(-n2c(-c3ccccc3)cc3c2CCCC3)cc1`: inactive: -20%. The same measure for `CCc1ccc(CNC(=O)c2ccc3c(c2)N=C(C)c2cc(C)ccc2S3)cc1`: inactive: -6.12%. To `CCCC(O)C(CC)CO` (stereo not given) belongs inactive: -2.84%.

Turning to `CC(CN(C)C)CN1c2ccccc2CCc2ccccc21` (stereo not given), the activation was inactive: 0.929% and inactive: -10%.

With `CC(C)C(=O)c1c(C(C)C)nn2ccccc12`, the activation was inactive: -13.4% and inactive: 8.43%. The same measure for `COc1ccc(Nc2ncc3c(n2)CCN(Cc2cc(Br)cs2)C3)c(OC)c1`: inactive: 17.7%; for `O=C(O)CSc1c2c(nc3cc(C(=O)Nc4ccc(F)c(Cl)c4)ccc13)CCC2`: inactive: -8.69%.

Turning to `CCCCOc1ccccc1C(=O)N(Cc1ccc(C)o1)C1CCS(=O)(=O)C1` (stereo not given), the activation is inactive: -3.62%. To `Cc1ccc(NC(=O)CSc2nc3c(oc4ccccc43)c(=O)n2-c2ccc(F)cc2)c(C)c1` belongs inactive: 4.24%.

Turning to `CCOC(=O)c1ccc(N2CCN(c3cc(C)ccc3C)CC2)c(NC(=O)Nc2ccccc2)c1`, the activation is inactive: -21.7%. `COc1ccccc1NC(=O)c1cc2c(=O)oc3ccc(C)cc3c2s1`: the activation is inactive: 5.69%. The same measure for `Cc1cccn2c(=O)c3cc(C#N)c(=O)n(-c4nnc(SCc5ccccc5F)s4)c3nc12`: inactive: 0.49%. For `C=Cc1ccc(Cn2nc(-c3ccc(C)c(S(=O)(=O)N(CC)CC)c3)ccc2=O)cc1`, the activation is inactive: -15.7%. Consider `COc1ccc2cc(-c3nc4ccc(C(=O)O)cc4[nH]3)c(=O)oc2c1`, for which the activation was inactive: 20%. Take `COCCCNC(=O)CCCCn1c(=O)c2ccccc2n(CC(=O)Nc2ccc(C)cc2C)c1=O`: the activation was inactive: -3.61%. To `Cn1nc(-c2ccc(C(=O)Nc3ccc(F)cc3)cc2)c2ccccc2c1=O` belongs active: 105%. The same measure for `CCOc1ccccc1NC(=O)Cn1nnc2sc(-c3ccccc3)cc2c1=O`: inactive: -2.92%; for `COCCNC(=O)CSc1nc2cc3c(cc2c(=O)n1CCCCCC(=O)NCc1ccc(OC)cc1)OCO3`: inactive: -1.75%. As for `COc1ccc(CNC(=O)c2ccc3c(c2)nc2n3CCC(C)C2)c(OC)c1` (stereo not given), the activation was inactive: -13%. The same measure for `CC(C)c1ccc(S(=O)(=O)NCc2ccc3c(c2)CCN3C(=O)c2ccccc2)cc1`: inactive: -17.6%; for `COc1ccc(Br)cc1C(=O)Nc1nc2ccc(F)cc2s1`: inactive: -6.16%; for `CCOc1ccccc1NC(=O)c1c(NC(=O)c2cccc(C)c2)sc2c1CCCC2`: inactive: -2.85%. To `CCc1ccccc1NC(=O)Nc1cc(C(=O)NCc2ccc(C)cc2)ccc1N1CCCC1` belongs inactive: -7.08%; to `CC(C(=O)NCc1ccccc1F)n1ccc2cc(S(=O)(=O)N3CCCC3)ccc21` (stereo not given), inactive: -14.6%.

In the case of `O=C(Nc1ccc(C(F)(F)F)cc1)C1CCCN(c2cnccn2)C1` (stereo not given), the activation is inactive: 5.36%. To `O=C(Nc1ccccc1Cl)N1CCC(CN2CCCCC2)CC1` belongs inactive: -4.57%.
